In PubChem BioAssay AID1479 (National Center for Advancing Translational Sciences (NCATS), 2009):
In all, about 280,000 compounds went through this assay and about 820 (0.29%) were called active. The shares of active, inactive and inconclusive entries below differ from those in the screen. The call rests on the fitted dose curve; in most records, active means well fitted curve in either direction with a large enough effect; inconclusive means small, poorly fitted or top-dose-only effect; inactive means flat fitted curve, though single readings scatter. Potencies of inconclusive entries are left out as doubtful fits.

Experiment: Total Fluorescence Counterscreen for Inhibitors of the Interaction of Thyroid Hormone Receptor and Steroid Receptor Coregulator 2
Settings: TRb/SRC2 Texas Red total fluorescence interference; series mostly up to 106 µM
In short: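 Human TRb ligand-binding domain at 0.6 uM with 20 nM Texas Red SRC2 peptide in Tris buffer containing 1 uM T3 and 5% DMSO, incubated with compound 5 h at ambient temperature. Total fluorescence (555/632 nm) calculated as parallel + 2 × perpendicular.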
Potency means the concentration at half of the fitted maximal effect; tags describe the fitted curve by direction and shape or compound fluorescence and quenching.

Row | Structure (SMILES) | Potency
1 | COC(=O)c1cc(NC(=O)c2sc3ccccc3c2Cl)cc(C(=O)OC)c1 | inactive
2 | Cc1cc(=O)n(CC(=O)NC(C)c2ccccc2)c2c1c(C)nn2-c1cccc(F)c1 (stereo unspecified) | active: 251 µM [quencher]
3 | CCN1C(=O)c2ccccc2S(=O)(=O)c2ccc(C(=O)NCc3ccc(OC)cc3)cc21 | inconclusive [quencher, partial curve]
4 | CCOC(=O)NC(=O)C(=CNc1cccc(C)c1)C(=O)NC(=O)OCC | inactive
5 | CCOC(=O)c1c(NC(=O)CSc2nnc(CNc3ccc(F)cc3)o2)sc(C)c1C | inactive
6 | CCO/C([O-])=N/c1c[n+](N2CCOCC2)no1 | inconclusive [falling, full curve, poor fit]
7 | Cc1ccc(NC(=O)Cn2cc(C(=O)C3CCCCC3)c3ccccc32)cc1 | inconclusive [falling, full curve, poor fit]
8 | CC1(C)CC(=O)/C(=C(\O)Cc2ccccc2)C(=NCCCCCC(=O)O)C1 | inconclusive [quencher, partial curve]
9 | CC(=O)[C@@H]1[C@H]2[C@H](C(=O)[C@H]3OC[C@@H]2O3)[C@H]2C=Cc3ccccc3N21 | active: 35.5 µM [fluorescent]
10 | CCc1ccccc1NC(=O)CN1C(=O)CCSc2ccc(S(=O)(=O)N3CCCC3)cc21 | inconclusive [falling, full curve, poor fit]
11 | O=C(O)c1cccc(-n2cccc2/C=C2/NC(=O)N(Cc3ccccc3F)C2=O)c1 | inactive
12 | CCc1ccc(C2NC(=S)NC3=C2C(=O)N(c2ccccc2OC)C(c2ccc(CC)cc2)N3)cc1 (stereo unspecified) | inactive
13 | CN(CCC#N)C(=O)COC(=O)c1c2c(nc3ccccc13)/C(=C/c1ccco1)CC2 | inconclusive [quencher, partial curve]
14 | CCn1c(O)c(N=NC(=O)c2ccc(CSc3nncn3C)cc2)c2ccccc21 | inconclusive [falling, full curve, poor fit]
15 | COC(=O)c1sccc1S(=O)(=O)N1CCN(c2ccc(C(C)=O)cc2)CC1 | inconclusive [falling, full curve, poor fit]
16 | [O-]/C(=C(\C(=S)Nc1cccc2ccccc12)[n+]1ccccc1)c1ccc(Cl)s1 | inactive
17 | CCCCn1cc(S(=O)(=O)c2ccc(Cl)cc2)c(=O)c2cc(F)c(N3CCCC(C)C3)cc21 (stereo unspecified) | active: 100 µM [quencher]
18 | Cc1cc(NS(=O)(=O)c2ccc(NC(=S)NC(=O)c3ccccc3)cc2)no1 | inconclusive [falling, full curve, poor fit]
19 | COC(=O)c1cc(=O)c(O)c2c(O)c(O)ccc2c1 | inconclusive [quencher, partial curve]
20 | COc1cccc(NC(=O)CC2SC(=Nc3ccccc3)NC2=O)c1 (stereo unspecified) | inactive
21 | O=C(CSc1ccc2c(c1)OCCO2)Nc1cccnc1Cl | inactive

Row | Structure (SMILES) | Potency
22 | CCCOC(=O)c1c(NC(=O)c2cc3nc(-c4ccc(OC)cc4)cc(C(F)(F)F)n3n2)sc2c1CCCC2 | inconclusive [falling, partial curve, poor fit]
23 | COc1ccc(-c2oc(NC(=O)CSc3nncn3C)c(C#N)c2-c2ccc(OC)cc2)cc1 | inconclusive [rising, single point]
24 | CCC1=NN2C(=N)/C(=C\c3ccc(SCc4ccco4)o3)C(=O)N=C2S1 | inconclusive [fluorescent, partial curve]
25 | CCOC(=O)N1CCN(c2cc(NCCC(=O)O)c3c4c(onc24)-c2ccccc2C3=O)CC1 | active: 12.6 µM [fluorescent]
26 | CCCCN1C(=O)c2[nH]nc(-c3ccccc3O)c2C1c1ccc(OCc2ccccc2)cc1 (stereo unspecified) | inconclusive [falling, full curve, poor fit]
27 | COc1ccccc1CNC(=O)c1c(O)nc2c(C)cccn2c1=O | inactive
28 | COc1ccc(C2NC(=O)NC(C)=C2C(=O)Nc2ccccc2)cc1OC (stereo unspecified) | inconclusive [falling, full curve, poor fit]
29 | Cc1ccc(CC(=O)Nc2ccc3c(c2)N(C)C(=O)c2ccccc2S3)cc1 | inconclusive [falling, partial curve, poor fit]
30 | CNC(=O)C1CC(=O)N(CCc2ccc(OC)c(OC)c2)C(=Nc2ccc(F)cc2)S1 (stereo unspecified) | inconclusive [rising, single point]
31 | CCCn1c(SCc2nc(-c3ccccc3OCC)no2)nnc1-c1ccc(Cl)cc1 | inconclusive [falling, full curve, poor fit]
32 | CCOC(=O)c1ccc(NC(=O)C(Cc2ccccc2)N2Cc3ccccc3C2=O)cc1 (stereo unspecified) | inconclusive [quencher, full curve]
33 | CCCOc1ccc(C(=O)Nc2ccc3oc(-c4cccc(Cl)c4Cl)nc3c2)cc1 | inconclusive [falling, full curve, poor fit]
34 | COc1cccc(C(=O)NC(=NCCc2c[nH]c3ccc(OC)cc23)Nc2nc(C)cc(C)n2)c1 | inconclusive [quencher, full curve]
35 | COc1ccc(NC(=O)Cn2c(=O)c3cc(Cl)ccc3n3nncc23)cc1 | active: 0.355 µM [quencher]
36 | COc1ccc(/C=N/Nc2cc(N3CCCC3)nc(N3CCCC3)n2)cc1 | inactive
37 | CCCc1cc(-c2n[nH]c(C)c2-c2ccc(C(=O)OCC)o2)c(O)cc1O | inactive
38 | CCCc1nnc(NC(=O)Cc2coc3ccc(C(C)C)cc23)s1 | inconclusive [falling, full curve, poor fit]
39 | COCCCNC(=O)CSc1nc2cc3c(cc2c(=O)n1CCCCCC(=O)NCc1ccc(OC)cc1)OCO3 | inconclusive [falling, partial curve, poor fit]
40 | NS(=O)(=O)c1ccc(N=Nc2c[nH]c(=O)c(O)c2)cc1 | inconclusive [falling, full curve, poor fit]
41 | COc1ccc(C(C2C(=O)CC(C)(C)CC2=O)C2C(=O)CC(C)(C)CC2=O)cc1 | inactive
